# Results: article PMC6212790
# The list shows a part of the results. At the low end of the ranking the order means little.
# Molecular target: T1, GST-Rok (full length) (UniProt O34857)
# T1 sequence: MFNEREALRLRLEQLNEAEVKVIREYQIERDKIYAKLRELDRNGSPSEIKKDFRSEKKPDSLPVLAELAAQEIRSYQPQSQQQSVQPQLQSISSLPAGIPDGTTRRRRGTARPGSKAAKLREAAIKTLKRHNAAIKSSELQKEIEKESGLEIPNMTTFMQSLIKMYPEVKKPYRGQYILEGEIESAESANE
# Assay: protein binding microarray;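 also: rank score from −0.5 (least bound) to 0.5 (best bound)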
# Conditions: Rok is a gene silencer of Bacillus subtilis; high values mean tight binding; most listed sequences are background and not binding sites; double strand, one strand shown
row,Sequence,binding signal [E-score]
1,CGCATACA,0.0781
2,CCACCTTC,-0.204
3,AACAGTAA,0.294
4,GAAGGCTA,-0.119
5,CTTAGTCA,0.256
6,ATACTGAT,0.177
7,AAATGACC,-0.0224
8,AGCGATGC,-0.0603
9,AATTATAT,0.407
10,ATTGCCGC,-0.142
11,GTCTTGGA,-0.061
12,GCCTTACC,-0.133
13,CACTATTA,0.268
14,GGGACGGA,-0.315
15,ATAGTATG,0.359
16,CCGTGAAG,-0.295
17,GAAGAGAC,0.00857
18,ACGCGTCA,-0.0563
19,CAGAAGTA,0.21
20,CCGATAAA,0.134
21,GTAATGTA,0.364
22,AACGTTGA,0.0808
23,ACCCACCA,-0.0478
24,ACACCCTA,0.0905
25,GAAAACGC,-0.0784

row,Sequence,binding signal [E-score]
1,AGAAATAT,0.301
2,ATGCACTA,0.0388
3,GTATAGAC,-0.08
4,GCAGTCTA,0.0175
5,ATCCTTCC,-0.158
6,TCCCTCAA,-0.171
7,GTGAGGAA,-0.165
8,AGGCGGCA,-0.267
9,ACGGATCG,0.0827
10,ATGTATCG,0.219
11,AATGAGTA,0.209
12,GCCCTAGA,-0.178
13,GGTGGTTA,-0.274
14,CACACTCG,0.0219
15,TATAATGA,0.298
16,CATCTGCC,-0.269
17,AGGAACCA,0.0529
18,AGCGAGTC,-0.257
19,ACGCATGG,-0.148
20,CAGTTGGA,-0.00562
21,GGGCCACC,-0.408
22,AGAATCGC,0.165
23,GCATTAAC,0.0561
24,CGCCTCGC,-0.421
25,ACAAGTCG,-0.122

row,Sequence,binding signal [E-score]
1,AAGTACCT,0.251
2,ATTACGCG,0.133
3,ATTGGCTA,-0.0147
4,CCGAAAGA,-0.112
5,CTGTCTAA,-0.0397
6,AGTTAGCA,0.271
7,GAACAATC,-0.0573
8,TAAGCATA,0.101
9,GACGTTTA,-0.0808
10,ACTCGAAT,-0.05
11,GTCTACTA,0.261
12,AACAGTTC,0.0688
13,ACGACCCA,-0.125
14,ACCTTACT,0.101
15,GGATCAAC,0.0189
16,CTGATAGA,0.0934
17,ATGAATAA,0.092
18,CCAATACC,-0.0159
19,ATGCAACA,-0.00939
20,CTCGAGTC,-0.273
21,AAAGTACA,0.364
22,AGCGCTCA,-0.102
23,ACACTCAA,0.0227
24,CAACGCCA,0.136
25,AAGCTCCC,-0.304

row,Sequence,binding signal [E-score]
1,CCCTCCAA,-0.376
2,TAAACTCA,0.157
3,ATAACTAT,0.407
4,CACTTTGA,-0.122
5,CCCGCCGG,-0.336
6,GAGCTTGA,-0.183
7,ATTTTTCC,0.0722
8,AGATGGCC,-0.153
9,AGTTTAGC,0.257
10,TATAAACA,0.254
11,ACCGACCG,-0.221
12,AACGGGCA,-0.23
13,GCACTTAC,-0.0436
14,CAGGTCTC,-0.204
15,AACCGCGG,-0.232
16,GACTGTTA,-0.107
17,AGTGTACA,0.192
18,GAGGCAAA,-0.194
19,AGCCGCAG,-0.349
20,AAATGCCA,-0.0326
21,CCTACCGA,0.101
22,CCCCCGAA,-0.428
23,AATGTCAT,0.228
24,GATTCGAA,-0.0274
25,ATCCATTC,-0.196

row,Sequence,binding signal [E-score]
1,ATGATCTA,0.306
2,CGTGAACA,0.0255
3,GCATCCGC,-0.23
4,CCCGAAGG,-0.367
5,AGACAAGG,-0.0734
6,ACGACGAC,0.0669
7,GCGGCTAC,-0.16
8,TCAACTAA,0.109
9,ATTATTGC,0.154
10,ACGTAGTC,-0.303
11,CCGGTCCA,-0.198
12,CTCCATGC,-0.173
13,AGGCCTTC,-0.293
14,GCGTCAAA,-0.0978
15,CTCTAAAC,0.0676
16,CAGCTGGG,-0.0951
17,ACCAATCA,0.0371
18,AGACCCGC,-0.286
19,ATATTTGC,0.285
20,ACCTACAC,0.0853
21,AACTACCT,0.416
22,AAGACGAA,0.134
23,AAGGAACC,-0.152
24,CCTGCGGC,-0.36
25,CAAAACCA,0.0944

row,Sequence,binding signal [E-score]
1,ACAGATGC,-0.212
2,GATAACAA,0.234
3,ATGTAACG,0.161
4,GAGTTATC,0.119
5,ATTTAAAC,0.0969
6,CTATAACC,0.156
7,CCAGCACA,-0.21
8,GAATGGGA,-0.15
9,ACAGATTA,0.0403
10,AATACAAC,0.287
11,ACAGCTCT,-0.118
12,ATAAAAGA,0.0984
13,ATAACCAA,0.276
14,CAATGGAC,-0.0589
15,GGGTTTAA,-0.108
16,CTCTTCGC,0.197
17,AGACGTTA,0.0403
18,AAGTTAAC,0.232
19,CGCAAAGA,-0.142
20,AGAGGGCG,-0.286
21,CGGTGGTA,0.202
22,GGCGGCAC,-0.156
23,TATCTACA,0.348
24,CCGGCGGC,-0.371
25,CATCACCG,-0.233

row,Sequence,binding signal [E-score]
1,GGTTTTTA,0.294
2,GTGGCGTA,-0.00523
3,ACTATGGA,-0.00972
4,CAACAGGG,-0.0798
5,GAGCCGGA,-0.366
6,ACAAGCGT,-0.0296
7,TCGCGCAA,0.168
8,AGCCTATC,0.0553
9,GACTAGCC,-0.0957
10,CATGGGGA,-0.184
11,GCGCAGCA,-0.293
12,CGCTTAAG,-0.147
13,AGTCAATA,0.322
14,GTGCCCCA,-0.172
15,GGCTTGAA,-0.22
16,GGCGAGCC,-0.411
17,ATAAACAT,0.203
18,ACTTTAGA,0.00104
19,ATAGAATG,0.181
20,AGAGCAGC,-0.246
21,CCGTGTCC,-0.312
22,ACCAAAAA,0.211
23,ACCTAATC,0.204
24,ATACATTG,0.317
25,ATGTGTTC,0.0223

row,Sequence,binding signal [E-score]
1,AGAATCCT,0.0705
2,GCCACGAA,-0.185
3,CAAGACAG,-0.115
4,CGGTTGAA,-0.0837
5,AAACAGGA,0.00183
6,CCTCTGGC,-0.279
7,CGTAACAG,0.0596
8,GGTAAGCA,0.00929
9,ACTCGAGT,-0.00899
10,TGCGCAAA,-0.0078
11,TCTTATCA,0.125
12,AGGTTACT,0.0828
13,AAGCACGG,-0.125
14,CAGACATA,0.133
15,AAAGAGAG,-0.138
16,CTTCTATA,0.233
17,TAACGAAA,0.32
18,GGCCTGTA,-0.0873
19,CTTACCCA,-0.0105
20,AGCTCTGG,-0.175
21,CGGCCCTC,-0.441
22,ATGGGGCC,-0.279
23,AGTTGACA,0.182
24,GCGCTATA,0.216
25,GTTGAAAC,0.0651

row,Sequence,binding signal [E-score]
1,TGAGTCCA,-0.185
2,AGAGCGCC,-0.254
3,ATTGGCAC,0.122
4,TATACTGA,0.284
5,ACGTGAGA,-0.0203
6,ATGTTGGC,0.0169
7,ATACTTGA,0.0977
8,AAACGACG,-0.0634
9,AAACCCGC,-0.243
10,CTCTACGA,0.0532
11,CGTGTCGC,0.00557
12,CAGTATCA,0.0946
13,GCATGCCA,-0.231
14,CAATAAAC,0.0772
15,GTGACTTA,0.0519
16,AATCAGGC,0.101
17,CAATGGTC,-0.0595
18,GGACTTCA,-0.0795
19,TGAATGAA,-0.0392
20,CATAGTAG,0.0836
21,ACATCCCT,-0.108
22,ACCGTAAG,0.0116
23,GGCGATAC,-0.174
24,ATGAAGAG,-0.22
25,AAGGGGTC,-0.333

row,Sequence,binding signal [E-score]
1,ATCCCGAC,-0.197
2,CTAGGGGA,-0.363
3,GATGGCTA,-0.00939
4,GCCCCTCA,-0.171
5,AGGAATAG,-0.0854
6,CGAAACCG,-0.151
7,AAGTAAGT,0.282
8,GTGGACGA,-0.14
9,AACCGGAT,0.00817
10,AAGGACTG,-0.0394
11,ATCCGGTG,0.0336
12,GTGTCCGA,-0.116
13,ACGATCGT,-0.142
14,ACCCTATC,0.169
15,GACTCATC,0.0637
16,CATTACGC,0.0594
17,CGTGAGCA,-0.0392
18,CGTAGGAA,0.116
19,ACTGACGA,0.026
20,AGAGAACA,0.0695
21,GTTCGTTA,0.162
22,CGCATGCC,-0.0802
23,CTCTCAGA,0.0161
24,ACAACAAG,0.0195
25,TAAAGCGA,-0.189

row,Sequence,binding signal [E-score]
1,CGGCTACA,-0.112
2,CCAGCTAC,0.0325
3,CATCTACA,0.177
4,GTTTCACA,-0.13
5,ATGTGCTA,0.222
6,CGGAACAG,-0.176
7,AGATAATC,0.18
8,AACATCGT,0.115
9,CTAACAGC,-0.153
10,GCTAAATA,0.271
11,GGCTAGAA,-0.0986
12,CGTCCTCA,-0.206
13,ACTAAGAT,0.25
14,GCCATAAA,-0.0698
15,GGACATTA,-0.0494
16,GTCAGATA,0.124
17,GAATGTAC,0.303
18,CGATTGGC,-0.14
19,ATGCATAC,0.165
20,ATGCTGAG,-0.243
21,TCTTAGCA,0.0484
22,TATGACCA,0.0643
23,CCTACGAC,-0.0435
24,GCCGTGAC,-0.176
25,GATCATTA,0.355

row,Sequence,binding signal [E-score]
1,ATGAAAGC,-0.0433
2,CAGTTGCA,0.008
3,AATGTGCA,0.152
4,GGTCCGAA,-0.0301
5,GGTCATGA,0.0617
6,ACTCCGCC,-0.291
7,CGAGGTGA,-0.1
8,CGATACTC,-0.195
9,AAACCTTT,0.052
10,CCTACTTA,0.228
11,GCAAAAAA,0.0117
12,CCGCCATA,-0.0715
13,ACGGCTCC,-0.24
14,CAGACCGG,-0.107
15,CCTTGTTC,-0.113
16,GACTTCAC,-0.0883
17,ATTATAGG,0.285
18,GTGCATGA,-0.127
19,ATCTTACC,0.246
20,AAAGGTAG,0.254
21,CAGTCGCC,-0.316
22,CCACAATC,-0.0329
23,ATATGTCG,0.154
24,AACTCATA,-0.0624
25,ACCATAGT,0.207

row,Sequence,binding signal [E-score]
1,CTTCGGCC,-0.159
2,CGTTGGTA,0.176
3,ACATCTGG,-0.0681
4,GCTCTGAC,-0.242
5,GCGTCTGA,-0.183
6,TGGATGAA,-0.0888
7,AAAGGGGC,-0.415
8,CTGATTAC,0.136
9,GCGCGCGC,0.0925
10,CTCAAAGA,-0.0835
11,CAATGTCA,-0.0614
12,CCAGGATA,-0.000931
13,AGGCCCCC,-0.446
14,CGGCAAGA,0.114
15,CGCTCGAC,-0.331
16,AAGGTCGG,-0.267
17,CGAACGCC,-0.357
18,CAGGGACA,-0.26
19,GACGACAA,0.0643
20,GATTCGGC,-0.277
21,AACGATGC,0.0279
22,CTCTTGTC,-0.13
23,GCATACCC,0.0368
24,GTTGGGTA,0.179
25,ACATAACG,0.157

row,Sequence,binding signal [E-score]
1,GAGCCGCA,-0.313
2,GAGTCATC,-0.207
3,AGGGTCAC,-0.107
4,CTACGTGA,-0.0406
5,CTCCACTC,-0.133
6,AGGGTTAT,-0.0286
7,AACCTCAC,-0.146
8,CCACTTTC,-0.0318
9,CCTGTAGC,-0.137
10,AAGAGAGT,-0.074
11,ACCCCAGG,-0.305
12,AGGCATTG,-0.101
13,GCATGGGA,-0.332
14,ACCTTAGC,0.0341
15,AAGCGTTG,-0.153
16,ATAAACTC,0.15
17,CAAGATCG,0.139
18,CCACATGC,-0.0754
19,CAGGAGAC,-0.217
